This is a noisy data set.
experiment: amyloid nucleation score relative to library mode (yeast Sup35 reporter selection) (log enrichment difference); higher = more amyloid nucleation; sequences are the first 22 residues of the Bri2 peptide extended by up to 12 random residues; conditions: random library (experiment): 1;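 active = nucleation score significantly above 0 at FDR 0.05; inactive = not significantly above 0 or absent from output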
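Also: [psi-pin-] Saccharomyces cerevisiae expressing SupN fusions, induced by 100 µM Cu2SO4, selected 7 d at 30 °C without adenine and uracil, scored by deep sequencing of output versus input.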

Sequence	amyloid nucleation score
EASNCFAIRHFENKFAVETLICRAAVRVDPEYEA	inactive
EASNCFAIRHFENKFAVETLICRAC	inactive
EASNCFAIRHFENKFAVETLICRACQTVRGRT	inactive
EASNCFAIRHFENKFAVETLICRAEALQARRRAA	-0.0242
EASNCFAIRHFENKFAVETLICRAEDLYAKKKRW	inactive
EASNCFAIRHFENKFAVETLICRAERCKRSVAAL	inactive
EASNCFAIRHFENKFAVETLICRAERVSGMALGV	inactive
EASNCFAIRHFENKFAVETLICRAGSAHRPAASL	inactive
EASNCFAIRHFENKFAVETLICRAGWKLTWGLPA	inactive
EASNCFAIRHFENKFAVETLICRALSKYM	1.41
EASNCFAIRHFENKFAVETLICRAMFALGRCKMV	0
EASNCFAIRHFENKFAVETLICRAPQRPSDWKLL	inactive
EASNCFAIRHFENKFAVETLICRAPRRFPWRGAC	inactive
EASNCFAIRHFENKFAVETLICRAPTGCAEWGCA	inactive
EASNCFAIRHFENKFAVETLICRARGHGGRARYW	inactive
EASNCFAIRHFENKFAVETLICRARGKFGGAPRG	inactive
EASNCFAIRHFENKFAVETLICRARHGHRRTAPV	inactive
EASNCFAIRHFENKFAVETLICRARKRPGTCVLV	inactive
EASNCFAIRHFENKFAVETLICRARKVR	inactive
EASNCFAIRHFENKFAVETLICRARRCNSFCGVL	inactive
EASNCFAIRHFENKFAVETLICRARSYGRWAR	inactive
EASNCFAIRHFENKFAVETLICRARVA	inactive
EASNCFAIRHFENKFAVETLICRARWAVRQVWLD	inactive

Sequence	amyloid nucleation score
EASNCFAIRHFENKFAVETLICRASLTKVFAKWC	inactive
EASNCFAIRHFENKFAVETLICRASLWNYTLINV	inactive
EASNCFAIRHFENKFAVETLICRASSHKPCDHPE	inactive
EASNCFAIRHFENKFAVETLICRASYAAGTGTMK	-0.12
EASNCFAIRHFENKFAVETLICRATGYACSGTGR	inactive
EASNCFAIRHFENKFAVETLICRATLIMLYGVDW	inactive
EASNCFAIRHFENKFAVETLICRATMRKARHGLV	inactive
EASNCFAIRHFENKFAVETLICRATRFVLAGSVC	inactive
EASNCFAIRHFENKFAVETLICRATVISH	inactive
EASNCFAIRHFENKFAVETLICRAV	inactive
EASNCFAIRHFENKFAVETLICRAVLFQPSPV	inactive
EASNCFAIRHFENKFAVETLICRAVV	inactive
EASNCFAIRHFENKFAVETLICRAWLFHFTRTQK	-0.0664
EASNCFAIRHFENKFAVETLICRAYEVPVGMAPW	inactive
EASNCFAIRHFENKFAVETLICRC	inactive
EASNCFAIRHFENKFAVETLICRCAEAPIGSHCA	5.47
EASNCFAIRHFENKFAVETLICRCAEGPVGADDL	5.66
EASNCFAIRHFENKFAVETLICRCASSLNRGISR	inactive
EASNCFAIRHFENKFAVETLICRCAVTLPVASS	inactive
EASNCFAIRHFENKFAVETLICRCETCLHTKIGA	inactive
EASNCFAIRHFENKFAVETLICRCGEHRAERWNN	6.92
EASNCFAIRHFENKFAVETLICRCGNERLVGLGA	-0.273
EASNCFAIRHFENKFAVETLICRCHGARLVICQA	inactive

Sequence	amyloid nucleation score
EASNCFAIRHFENKFAVETLICRCHNVTDMVFVN	inactive
EASNCFAIRHFENKFAVETLICRCHTVGF	inactive
EASNCFAIRHFENKFAVETLICRCIEFLKIVVVG	-0.0935
EASNCFAIRHFENKFAVETLICRCIK	5.68
EASNCFAIRHFENKFAVETLICRCLFDRMIREVL	inactive
EASNCFAIRHFENKFAVETLICRCLGGGPTGPWR	1.92
EASNCFAIRHFENKFAVETLICRCLLLSRFFCHI	3.17
EASNCFAIRHFENKFAVETLICRCMHSRILSGDL	inactive
EASNCFAIRHFENKFAVETLICRCNVMIDHTFWV	inactive
EASNCFAIRHFENKFAVETLICRCPMVFHLYLLE	inactive
EASNCFAIRHFENKFAVETLICRCPSYHSVVSLV	inactive
EASNCFAIRHFENKFAVETLICRCPVCFRCVWNG	inactive
EASNCFAIRHFENKFAVETLICRCQDRVYCIRVT	inactive
EASNCFAIRHFENKFAVETLICRCRLCSRMRSRE	inactive
EASNCFAIRHFENKFAVETLICRCSCS	inactive
EASNCFAIRHFENKFAVETLICRCSMKCEWQGCR	0.384
EASNCFAIRHFENKFAVETLICRCSYHLGFDHIN	2.87
EASNCFAIRHFENKFAVETLICRCTKDSRCWCQR	2.9
EASNCFAIRHFENKFAVETLICRCTLMIYSGVLS	inactive
EASNCFAIRHFENKFAVETLICRCTREYARNPA	4.29
EASNCFAIRHFENKFAVETLICRCTTECCCVHCQ	1.06

same assay, conditions: random library (experiment): 2

Sequence	amyloid nucleation score
EASNCFAIRHFENKFAVETLICRACSNELRPGAR	inactive
EASNCFAIRHFENKFAVETLICRACTLLGGGRTA	3.79
EASNCFAIRHFENKFAVETLICRAEGFVTTASSS	inactive
EASNCFAIRHFENKFAVETLICRAHPRGPRCSLV	-0.14
EASNCFAIRHFENKFAVETLICRAINMAADCFLC	inactive
EASNCFAIRHFENKFAVETLICRALFVFSPVSFA	2.56
EASNCFAIRHFENKFAVETLICRAPLNSN	inactive
EASNCFAIRHFENKFAVETLICRASMLSGQKLL	inactive
EASNCFAIRHFENKFAVETLICRCDDNPNQLLMV	inactive
EASNCFAIRHFENKFAVETLICRCFRLVQDMGEW	inactive
EASNCFAIRHFENKFAVETLICRCLLFLLFGWVY	inactive
EASNCFAIRHFENKFAVETLICRCSCLSDKVSMA	5.94
EASNCFAIRHFENKFAVETLICRCTFTLLRVFWV	inactive
EASNCFAIRHFENKFAVETLICRCVFRAMGAPAS	inactive

same assay, conditions: random library (experiment): 3

Sequence	amyloid nucleation score
EASNCFAIRHFENKFAVETLICRADRSWTDIDD	inactive
EASNCFAIRHFENKFAVETLICRAEGRGATDAA	inactive
EASNCFAIRHFENKFAVETLICRAFTAQWLKMLL	0.649
EASNCFAIRHFENKFAVETLICRAKGGVCEYPRR	0.658
EASNCFAIRHFENKFAVETLICRALQDRPDGVIR	1.03
EASNCFAIRHFENKFAVETLICRALYWSGSQRGP	inactive
EASNCFAIRHFENKFAVETLICRAMFKYVFLIWC	inactive
EASNCFAIRHFENKFAVETLICRAPLSGTGTAGE	inactive
EASNCFAIRHFENKFAVETLICRAQVVSAPSSRR	inactive
EASNCFAIRHFENKFAVETLICRARERMRGILDR	inactive
EASNCFAIRHFENKFAVETLICRARQRLGMLGLR	inactive
EASNCFAIRHFENKFAVETLICRASLGRSGCAMV	inactive
EASNCFAIRHFENKFAVETLICRASTHTFEKVIC	0.0274
EASNCFAIRHFENKFAVETLICRATCCLATFWYG	-0.396
EASNCFAIRHFENKFAVETLICRAVASWCPWQEV	inactive
EASNCFAIRHFENKFAVETLICRAWYDTCMAFNG	inactive
EASNCFAIRHFENKFAVETLICRCCQ	0.0651
EASNCFAIRHFENKFAVETLICRCDTWCSVMGML	inactive

Sequence	amyloid nucleation score
EASNCFAIRHFENKFAVETLICRCG	inactive
EASNCFAIRHFENKFAVETLICRCHGYEGFLASR	3.19
EASNCFAIRHFENKFAVETLICRCHTGCG	6.2
EASNCFAIRHFENKFAVETLICRCLSVVGRRAEL	inactive
EASNCFAIRHFENKFAVETLICRCLYPEVVCLRD	inactive
EASNCFAIRHFENKFAVETLICRCMCGLVASRLA	inactive
EASNCFAIRHFENKFAVETLICRCMQRFEVVAWG	inactive
EASNCFAIRHFENKFAVETLICRCNAVLSGRTVG	inactive
EASNCFAIRHFENKFAVETLICRCNCCTYPSDEV	9.56
EASNCFAIRHFENKFAVETLICRCPYAHRDQRWW	5.19
EASNCFAIRHFENKFAVETLICRCPYGCWLIGGA	inactive
EASNCFAIRHFENKFAVETLICRCQRRTGRRHAR	9.38
EASNCFAIRHFENKFAVETLICRCRIMR	inactive
EASNCFAIRHFENKFAVETLICRCSAYQSHDKL	5.91
EASNCFAIRHFENKFAVETLICRCTAWLGPTAQV	inactive
EASNCFAIRHFENKFAVETLICRCTTSPWWTGRV	inactive
EASNCFAIRHFENKFAVETLICRCVARCESVAWA	inactive
EASNCFAIRHFENKFAVETLICRCVCYLGCSPPV	inactive

From the supplement of paper PMC12067230
